Experimental data published in the supplement of paper PMC12217912.
Some of the results follow. Sequences were assembled here from the parent chain. Inactive controls read about 0.05.

B1: TEV protease; numbered along this chain (parent)
chain: MGESLFKGPRDYNPISSSICHLTNESDGHTTSLYGIGFGPFIITNKHLFRRNNGTLVVQSLHGVFKVKDTTTLQQHLVDGRDMIIIRMPKDFPPFPQKLKFREPQREERICLVTTNFQTKSMSSMVSDTSCTFPSGDGIFWKHWIQTKDGQCGSPLVSTRDGFIVGIHSASNFTNTNNYFTSVPKNFMELLTNQEAQQWVSGWRLNADSVLWGGHKVFMVKPEEPFQPVKEATQL

Variants of: B1
Assay: raw area under fraction-flipped curve 0-4 h after induction (AUC4h, not background-subtracted), DNA-recorder readout of cleavage of the substrate (dimensionless); higher = more cleavage of the substrate by the protease variant
Conditions: temperature: 34 °C; time window: 0-4 h after rhamnose induction
Description: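 In vivo DNA recorder in E. coli TOP10(DE3) ΔrhaA at 34 °C. Each TEVp single-site mutant (parent TEVp 0) is paired with a single-site variant of the 7-mer TEVs (canonical ENLYFQ|S). The substrate sits between flexible linkers in a Bxb1-sfGFP-TEVs-SsrA fusion, so cleavage stabilises Bxb1 and speeds flipping of a recombination array, read by NGS. The value is the raw area under the fraction-flipped curve over 0-4 h after rhamnose induction (AUC4h), with ≥20 reads per time point. It is not background-subtracted; inactive controls average about 0.047.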
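Note: Bxb1 expression induced with 0.2% (w/v) L-rhamnose at OD600 near 0.5, cultures sampled hourly, flipped fraction per protease–substrate barcode pair counted by paired-end Illumina sequencing.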

| Variant | area with substrate ENLAFQS | area with substrate ENLDFQS | area with substrate ENLEFQS | area with substrate ENLFFQS | area with substrate ENLHFQS | area with substrate ENLKFQS | area with substrate ENLNFQS | area with substrate ENLPFQS | area with substrate ENLQFQS | area with substrate ENLSFQS | area with substrate ENLWFQS | area with substrate ENLIFQS | area with substrate ENLMFQS | area with substrate ENLRFQS | area with substrate ENLTFQS | area with substrate ENLCFQS | area with substrate ENLGFQS | area with substrate ENLLFQS | area with substrate ENLVFQS |
| --- | --- | --- | --- | --- | --- | --- | --- | --- | --- | --- | --- | --- | --- | --- | --- | --- | --- | --- | --- |
| MGESLFKGPRDYNPISSSICHLTNESDGHTTSLYGIGFGPFIITNKHLFRRNNGTLVVQSLHGVFKVKDTTTLQQHLVDGRDMIIIRMPKDFPPFPQKLKFREPQREERICLVTTNFQTKSMSSMVSDTSCTFPSGDGIFWKHWIQTKDGQCGSPLVSTRDGFIVGIHSASNFTNTNNYFTSVPKNFMELLTNQEAQQWVSGWRLNADSVLWGGHKVFCVKPEEPFQPVKEATQL [M219C] | 0.0543 | 0.0765 | 0.0709 | 0.0932 | 0.0597 | 0.0688 | 0.0729 | 0.0736 | 0.0614 | 0.0991 | 0.0631 | – | – | – | – | – | – | – | – |
| MGESLFKGPRDYNPISSSICHLTNESDGHTTSLYGIGFGPFIITNKHLFRRNNGTLVVQSLHGVFKVKDTTTLQQHLVDGRDMIIIRMPKDFPPFPQKLKFREPQREERICLVTTNFQTKSMSSMVSDTSCTFPSGDGIFWKHWIQTKDGQCGSPLVSTRDGFIVGIHSASNFTNTNNYFTSVPKNFMELLTNQEAQQWVSGWRLNADSVLWGGHKVFVVKPEEPFQPVKEATQL [M219V] | 0.0718 | – | 0.07 | 0.0769 | 0.0731 | 0.0785 | 0.0782 | 0.0557 | 0.0603 | 0.0531 | – | 0.088 | 0.0756 | 0.0726 | 0.0604 | – | – | – | – |
| MGESLFKGPRDYNPISSSICHLTNESDGHTTSLYGIGFGPFIITNKHLFRRNNGTLVVQSLHGVFKVKDTTTLQQHLVDGRDMIIIRMPKDFPPFPQKLKFREPQREERICLVTTNFQTKSMSSMVSDTSCTFPSGDGIFWKHWIQTKDGQCGSPLVSTRDGFIVGIHSASNFTNTNNYFTSVPKNFMELLTNQEAQQWVSGWRLNADSVLWGGWKVFMVKPEEPFQPVKEATQL [H215W] | 0.0561 | 0.0671 | 0.052 | 0.0655 | 0.0662 | 0.0666 | 0.0566 | – | – | 0.0545 | 0.0914 | – | 0.0044 | 0.0733 | – | 0.0687 | 0.065 | 0.0541 | 0.0645 |
| MGESLFKGPRDYNPISSSICHLTNESDGHTTSLYGIGFGPFIITNKHLFRRNNGTLVVQSLHGVFKVKDTTTLQQHLVDGRDMIIIRMPKDFPPFPQKLKFREPQREERICLVTTNFQTKSMSSMVSDTSCTFPSGDGIFWKHWIQTKDGQCGSPLVSTRDGFIVGIHSASNFTNTNNYFTSVPKNFMELLTNQEAQQWVSGWRLNADSVLWGGDKVFMVKPEEPFQPVKEATQL [H215D] | 0.0544 | 0.0599 | 0.0733 | 0.0596 | 0.0687 | 0.0641 | 0.0597 | 0.073 | 0.0641 | 0.065 | – | 0.0533 | – | 0.062 | – | 0.0542 | 0.105 | 0.086 | 0.0565 |
| MGESLFKGPRDYNPISSSICHLTNESDGHTTSLYGIGFGPFIITNKHLFRRNNGTLVVQSLHGVFKVKDTTTLQQHLVDGRDMIIIRMPKDFPPFPQKLKFREPQREERICLVTTNFQTKSMSSMVSDTSCTFPSGDGIFWKHWIQTKDGQCGSPLVSTRDGFIVGIHSASNFTNTNNYFTSVPKNFMELLTNQEAQQWVSGWRLNADSVLWGGHKVFMIKPEEPFQPVKEATQL [V220I] | 0.0651 | 0.0673 | 0.105 | 0.0958 | – | 0.0806 | – | 0.0563 | – | 0.0538 | – | 0.0776 | – | – | 0.0813 | – | – | – | – |
| MGESLFKGPRDYNPISSSICHLTNESDGHTTSLYGIGFGPFIITNKHLFRRNNGTLVVQSLHGVFKVKDTTTLQQHLVDGRDMIIIRMPKDFPPFPQKLKFREPQREERICLVTTNFQTKSMSSMVSDTSCTFPSGDGIFWKHWIQTKDGQCGSPLVSTRDGFIVGIHSASNFTNTNNYFTSVPKNFMELLTNQEAQQWVSGWRLNADSVLWGGHKVFMPKPEEPFQPVKEATQL [V220P] | 0.0631 | 0.0635 | 0.0635 | 0.0769 | 0.0671 | 0.0741 | 0.0632 | 0.0599 | 0.0643 | 0.0664 | – | 0.105 | – | 0.0771 | – | 0.0652 | 0.0843 | – | – |
| MGESLFKGPRDYNPISSSICHLTNESDGHTTSLYGIGFGPFIITNKHLFRRNNGTLVVQSLHGVFKVKDTTTLQQHLVDGRDMIIIRMPKDFPPFPQKLKFREPQREERICLVTTNFQTKSMSSMVSDTSCTFPSGDGIFWKHWIQTKDGQCGSPLVSTRDGFIVGIHSASNFTNTNNYFTSVPKNFMELLTNQEAQQWVSGWRLNADSVLWGGHKVFMVKSEEPFQPVKEATQL [P222S] | 0.0611 | 0.0632 | 0.081 | 0.081 | 0.0523 | 0.0804 | 0.0618 | 0.0613 | 0.0569 | 0.0604 | 0.0722 | – | 0.0806 | 0.0733 | – | – | – | 0.0825 | – |
| MGESLFKGPRDYNPISSSICHLTNESDGHTTSLYGIGFGPFIITNKHLFRRNNGTLVVQSLHGVFKVKDTTTLQQHLVDGRDMIIIRMPKDFPPFPQKLKFREPQREERICLVTTNFQTKSMSSMVSDTSCTFPSGDGIFWKHWIQTKDGQCGSPLVSTRDGFIVGIHSASNFTNTNNYFTSVPKNFMELLTNQEAQQWVSGWRLNADSVLWGGHKVFMVKCEEPFQPVKEATQL [P222C] | 0.0941 | 0.0571 | 0.0559 | 0.0733 | 0.0643 | 0.0507 | 0.0589 | – | – | – | 0.0746 | 0.0737 | – | 0.0458 | – | 0.0678 | 0.0613 | 0.0704 | – |
| MGESLFKGPRDYNPISSSICHLTNESDGHTTSLYGIGFGPFIITNKHLFRRNNGTLVVQSLHGVFKVKDTTTLQQHLVDGRDMIIIRMPKDFPPFPQKLKFREPQREERICLVTTNFQTKSMSSMVSDTSCTFPSGDGIFWKHWIQTKDGQCGSPLVSTRDGFIVGIHSASNFTNTNNYFTSVPKNFMELLTNQEAQQWVSGWRLNADSVLWGGHKAFMVKPEEPFQPVKEATQL [V217A] | 0.0648 | 0.0557 | 0.0537 | 0.0708 | – | – | 0.068 | 0.0735 | – | 0.0685 | 0.0923 | 0.0779 | – | – | – | – | 0.0262 | 0.0718 | 0.0619 |
